Test results from the supplement of paper PMC7335073.
In all, about 4,100 sequences were measured (“relative CpG methylation activity (normalised to average over all NNNCGNNN flanks)”: median about 0.94, highest 2% from about 1.9 on). The list shows a part of the results.

The sequences below were run against DNMT3B catalytic domain (mouse) (UniProt O88509) (assay: relative CpG methylation activity (normalised to average over all NNNCGNNN flanks) (relative (1 = mean)); higher = more methylation of the central CpG). Details: system: in vitro, murine catalytic domain; CpG state: hemimethylated substrate pool; residues: 558-859.
UniProt O88509, sequence (O88509 558-859): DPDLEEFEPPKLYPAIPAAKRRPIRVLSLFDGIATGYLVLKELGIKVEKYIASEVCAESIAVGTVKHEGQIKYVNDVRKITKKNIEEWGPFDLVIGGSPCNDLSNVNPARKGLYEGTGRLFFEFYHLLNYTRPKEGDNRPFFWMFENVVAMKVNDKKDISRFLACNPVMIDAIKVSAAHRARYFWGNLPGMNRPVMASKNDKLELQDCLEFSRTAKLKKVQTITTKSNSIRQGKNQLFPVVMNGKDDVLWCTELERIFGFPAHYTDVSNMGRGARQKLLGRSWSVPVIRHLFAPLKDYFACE
Experimental: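 Deep enzymology: a pool of dsDNA substrates with a central CpG flanked by 10 random nucleotides on each side was methylated by the murine DNMT3A or DNMT3B catalytic domain (0.8 mM SAM, 37 °C, 60 min). Methylation was then read out by hairpin ligation, bisulfite conversion and NGS. Values are the average methylation of each NNNCGNNN context (±3 flanks; the outer flanks are random and averaged over), normalised to the overall mean, so 1 = average activity.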
For GGACGGTA, the “relative CpG methylation activity” value was 0.923.
CCGCGGCT was tested, and the “relative CpG methylation activity” value was 1.14.
For ATCCGACG, the “relative CpG methylation activity” value was 1.08.
In the case of AGTCGATA, the “relative CpG methylation activity” value is reported as 1.57.
With GACCGCGG the “relative CpG methylation activity” value was 0.193.
In the case of GTGCGCCA, the “relative CpG methylation activity” value is reported as 0.939.
CGACGTTC was tested, and the “relative CpG methylation activity” value was 0.699.
For AAACGAAG, the “relative CpG methylation activity” value was 1.18.
For GGGCGCTC, the “relative CpG methylation activity” value was 0.566.
In the case of ATACGCTA, the “relative CpG methylation activity” value is reported as 1.58.
With AGACGGAG the “relative CpG methylation activity” value was 0.717.
For TTTCGCTT, the “relative CpG methylation activity” value was 1.17.
For TAACGAAA, the “relative CpG methylation activity” value was 1.59.
For TTACGACC, the “relative CpG methylation activity” value was 1.87.
In the case of GAGCGATA, the “relative CpG methylation activity” value is reported as 1.19.
AGTCGTTA was tested, and the “relative CpG methylation activity” value was 0.494.
In the case of AGACGTCT, the “relative CpG methylation activity” value is reported as 0.991.
For AAGCGGGG, the “relative CpG methylation activity” value was 0.684.
For TGCCGGCC, the “relative CpG methylation activity” value was 1.1.
With GAACGATA the “relative CpG methylation activity” value was 1.64.
In the case of CACCGCCA, the “relative CpG methylation activity” value is reported as 0.643.
With TCTCGGGC the “relative CpG methylation activity” value was 1.69.
CACCGAAG was tested, and the “relative CpG methylation activity” value was 1.01.
For GGGCGCAA, the “relative CpG methylation activity” value was 0.152.
In the case of CAACGACA, the “relative CpG methylation activity” value is reported as 1.5.
In the case of CGCCGTGG, the “relative CpG methylation activity” value is reported as 0.193.
For TGGCGACC, the “relative CpG methylation activity” value was 0.554.
For AACCGACG, the “relative CpG methylation activity” value was 0.752.
For ATCCGGGC, the “relative CpG methylation activity” value was 1.58.
GTTCGATA was tested, and the “relative CpG methylation activity” value was 1.46.
In the case of TAGCGCCG, the “relative CpG methylation activity” value is reported as 0.742.
In the case of CTGCGCCG, the “relative CpG methylation activity” value is reported as 1.15.
In the case of CTCCGGCG, the “relative CpG methylation activity” value is reported as 1.54.
GAGCGGTG was tested, and the “relative CpG methylation activity” value was 0.965.
With AACCGGAT the “relative CpG methylation activity” value was 0.519.
TGTCGTAG was tested, and the “relative CpG methylation activity” value was 0.188.
With GAACGGTT the “relative CpG methylation activity” value was 1.22.
In the case of TGTCGCCG, the “relative CpG methylation activity” value is reported as 0.691.
In the case of CGACGATG, the “relative CpG methylation activity” value is reported as 1.12.
In the case of GAACGCAA, the “relative CpG methylation activity” value is reported as 0.648.
In the case of ACTCGTTC, the “relative CpG methylation activity” value is reported as 0.665.
With TGTCGAGG the “relative CpG methylation activity” value was 1.06.
In the case of GTGCGTGA, the “relative CpG methylation activity” value is reported as 0.626.
In the case of ATGCGGGA, the “relative CpG methylation activity” value is reported as 1.08.
In the case of TCTCGTCT, the “relative CpG methylation activity” value is reported as 0.777.
In the case of GTGCGGTG, the “relative CpG methylation activity” value is reported as 0.853.
With TATCGTCT the “relative CpG methylation activity” value was 0.897.
For TAACGACG, the “relative CpG methylation activity” value was 1.39.
With TGCCGTGA the “relative CpG methylation activity” value was 0.229.
GTTCGAGT was tested, and the “relative CpG methylation activity” value was 1.31.
In the case of AACCGCTC, the “relative CpG methylation activity” value is reported as 0.489.
In the case of TTGCGAGC, the “relative CpG methylation activity” value is reported as 1.43.
CAGCGCGG was tested, and the “relative CpG methylation activity” value was 0.606.
GGACGGGC was tested, and the “relative CpG methylation activity” value was 1.41.
With CGACGGAG the “relative CpG methylation activity” value was 0.643.
For CACCGGTG, the “relative CpG methylation activity” value was 1.14.
In the case of GCACGCGT, the “relative CpG methylation activity” value is reported as 0.853.
In the case of TAGCGACG, the “relative CpG methylation activity” value is reported as 0.563.
With CGCCGAGG the “relative CpG methylation activity” value was 0.682.
In the case of TGACGTCC, the “relative CpG methylation activity” value is reported as 0.963.
For TTGCGCGA, the “relative CpG methylation activity” value was 0.688.
For GGACGCCA, the “relative CpG methylation activity” value was 1.01.
In the case of TACCGAAA, the “relative CpG methylation activity” value is reported as 1.07.
In the case of GTACGTTC, the “relative CpG methylation activity” value is reported as 1.34.
AGTCGGCA was tested, and the “relative CpG methylation activity” value was 2.11.
With AGGCGGAG the “relative CpG methylation activity” value was 0.295.
In the case of GGACGCCT, the “relative CpG methylation activity” value is reported as 1.12.
AATCGCTG was tested, and the “relative CpG methylation activity” value was 0.538.
GAACGGGG was tested, and the “relative CpG methylation activity” value was 1.23.
In the case of GATCGCTC, the “relative CpG methylation activity” value is reported as 0.935.
In the case of TAGCGTCA, the “relative CpG methylation activity” value is reported as 0.661.
With GGACGGCT the “relative CpG methylation activity” value was 1.51.
In the case of CGGCGTCT, the “relative CpG methylation activity” value is reported as 0.355.
For TAACGGCG, the “relative CpG methylation activity” value was 1.78.
For CATCGACA, the “relative CpG methylation activity” value was 1.44.
In the case of TCTCGGCC, the “relative CpG methylation activity” value is reported as 1.96.
For CATCGAGA, the “relative CpG methylation activity” value was 1.77.
In the case of AACCGCCA, the “relative CpG methylation activity” value is reported as 0.429.
With CTGCGGCA the “relative CpG methylation activity” value was 1.47.
TGTCGTAC was tested, and the “relative CpG methylation activity” value was 0.896.
For TGGCGCGA, the “relative CpG methylation activity” value was 0.134.
With TCACGCCT the “relative CpG methylation activity” value was 1.3.
TTCCGACG was tested, and the “relative CpG methylation activity” value was 1.57.
In the case of GCACGTAT, the “relative CpG methylation activity” value is reported as 0.715.
For CCCCGTAC, the “relative CpG methylation activity” value was 1.2.
With GCCCGTCT the “relative CpG methylation activity” value was 0.685.
In the case of GAACGATG, the “relative CpG methylation activity” value is reported as 1.17.
AGTCGATT was tested, and the “relative CpG methylation activity” value was 1.68.
With ACACGAAA the “relative CpG methylation activity” value was 1.47.
TCACGGTG was tested, and the “relative CpG methylation activity” value was 0.823.
For GTGCGAAA, the “relative CpG methylation activity” value was 1.05.
In the case of CTGCGAAA, the “relative CpG methylation activity” value is reported as 1.32.
AACCGTGC was tested, and the “relative CpG methylation activity” value was 0.377.
GGGCGGAG was tested, and the “relative CpG methylation activity” value was 0.141.
In the case of AAGCGCAA, the “relative CpG methylation activity” value is reported as 0.301.
AGACGACT was tested, and the “relative CpG methylation activity” value was 1.28.
With TCGCGGAC the “relative CpG methylation activity” value was 0.818.
With GTACGAAG the “relative CpG methylation activity” value was 1.57.
GACCGATA was tested, and the “relative CpG methylation activity” value was 1.4.
In the case of CGACGCAT, the “relative CpG methylation activity” value is reported as 0.454.
GAACGGCG was tested, and the “relative CpG methylation activity” value was 1.53.
With GGCCGCAA the “relative CpG methylation activity” value was 0.15.
GCGCGGTA was tested, and the “relative CpG methylation activity” value was 0.743.
TTGCGAAT was tested, and the “relative CpG methylation activity” value was 0.984.
In the case of CCACGTGA, the “relative CpG methylation activity” value is reported as 0.579.
For GTCCGTCC, the “relative CpG methylation activity” value was 1.22.
In the case of TATCGCAG, the “relative CpG methylation activity” value is reported as 0.473.
CTACGAAG was tested, and the “relative CpG methylation activity” value was 1.6.
For GGACGCGG, the “relative CpG methylation activity” value was 0.51.
For GACCGTAT, the “relative CpG methylation activity” value was 0.195.
